From publication PMC4336329 (PLoS ONE, 2015)
About 14,000 (4.5%) of roughly 310,000 compounds showed an effect of 50% or more. Effects have a minus sign here. The list shows a part of the results.

biological target: human ether-à-go-go-related gene (hERG) potassium channel (human, UniProt Q12809); experiment: primary screen, population patch clamp on CHO cells stably expressing hERG
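Note: peak tail current of the secondary pulse compared with the same well before compound.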

Chain of human ether-à-go-go-related gene (hERG) potassium channel (Q12809 whole entry, looked up): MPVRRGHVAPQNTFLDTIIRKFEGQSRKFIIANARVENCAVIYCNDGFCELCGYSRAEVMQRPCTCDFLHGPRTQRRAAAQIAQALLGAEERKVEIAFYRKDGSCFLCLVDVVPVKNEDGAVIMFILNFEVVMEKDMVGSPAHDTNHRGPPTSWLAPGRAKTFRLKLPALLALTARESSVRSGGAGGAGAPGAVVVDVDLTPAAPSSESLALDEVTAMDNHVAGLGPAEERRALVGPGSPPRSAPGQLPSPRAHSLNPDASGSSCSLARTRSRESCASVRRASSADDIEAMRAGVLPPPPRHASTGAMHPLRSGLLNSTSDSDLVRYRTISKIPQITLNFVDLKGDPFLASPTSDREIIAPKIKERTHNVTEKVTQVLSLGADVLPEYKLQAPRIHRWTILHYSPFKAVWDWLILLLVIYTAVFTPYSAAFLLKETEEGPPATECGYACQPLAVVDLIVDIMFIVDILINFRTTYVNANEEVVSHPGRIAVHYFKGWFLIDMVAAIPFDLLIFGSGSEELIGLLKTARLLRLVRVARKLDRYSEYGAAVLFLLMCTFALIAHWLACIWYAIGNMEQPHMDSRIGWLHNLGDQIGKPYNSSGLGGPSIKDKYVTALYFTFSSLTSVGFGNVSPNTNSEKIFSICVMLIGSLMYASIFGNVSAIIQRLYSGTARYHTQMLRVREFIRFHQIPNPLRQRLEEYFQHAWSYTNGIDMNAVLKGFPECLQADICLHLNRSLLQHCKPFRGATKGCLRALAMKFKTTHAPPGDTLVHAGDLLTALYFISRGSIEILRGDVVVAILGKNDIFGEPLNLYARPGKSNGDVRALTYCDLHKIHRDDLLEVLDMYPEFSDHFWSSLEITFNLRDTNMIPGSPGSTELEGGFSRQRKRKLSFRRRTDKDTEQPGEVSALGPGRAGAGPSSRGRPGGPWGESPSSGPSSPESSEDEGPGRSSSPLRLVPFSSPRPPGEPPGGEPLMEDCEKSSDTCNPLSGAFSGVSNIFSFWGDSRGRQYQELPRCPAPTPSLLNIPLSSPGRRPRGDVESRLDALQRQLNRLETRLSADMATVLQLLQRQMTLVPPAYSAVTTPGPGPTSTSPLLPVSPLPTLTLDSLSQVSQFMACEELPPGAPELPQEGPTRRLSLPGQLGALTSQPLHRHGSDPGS

SMILES | hERG current change (%, negative = inhibition) at 10uM [%]
COc1ccc(OC)c(NC(=O)C(=O)NCCC2=CCCCC2)c1 | 7.22
CCCCCCCCCCCCCCCC(=O)OC/C=C(C)/C=C/C=C(C)/C=C/C1=C(C)CCCC1(C)C | 13.7
O=C(NCc1ccccn1)C1CCCN(S(=O)(=O)c2ccccc2)C1 (stereo not drawn) | 10.9
O=C(CN1C(=O)c2ccccc2C1=O)Nc1cc(C(=O)O)cc(C(=O)O)c1 | 7.72
O=c1cc(-c2cc3ccccc3o2)c2cc(O)ccc2o1 | 13.3
COc1cc(/C=C(/C#N)c2nc3ccccc3[nH]2)ccc1OCc1ccc(C(=O)O)o1 | 10.7
CC(=O)N1CCN(c2ccccc2NC(=O)c2ccc3ccccc3c2)CC1 | -61.9
COc1cccc(N2CCN(C(=O)Nc3ccc4c(c3)NC(=O)CO4)CC2)c1 | -75.8
O=c1[nH][nH]c(C(F)(F)F)c1/C=N/N1CCOCC1 | 18.5
O=C(c1ncc[nH]1)c1ccco1 | 6.64
N#C/C(=N\O)c1nc(-c2ccccc2)cs1 | 15.9
CC(C)(C)C(=O)Oc1cc(N)n(S(=O)(=O)c2ccc(F)cc2)n1 | 8.96
CC(=O)n1cc([C@@H]2C=C(C(=O)N3CCN(Cc4ccccc4)CC3)O[C@H](OCc3ccc(CO)cc3)C2)c2ccccc21 | -10.1
CCOC(CNC(=O)C(=O)NCC(c1ccco1)N1CCN(c2ccc(OC)cc2)CC1)OCC (stereo not drawn) | 0.386
COc1ccc(NC(=O)N2Cc3ccccc3CC2C(=O)NC(C)(C)C)cc1 (stereo not drawn) | 1.23
COc1ccccc1NC(=O)CSc1nnc(CC(=O)Nc2ccccc2C)n1C | 18.7
COc1ccc(C(N)=O)cc1NC(=O)CC(O)(C(F)(F)F)C(F)(F)F | 7.68
COc1ccc(NC(=O)C2CCCN2S(=O)(=O)c2cccc3cccnc23)c(OC)c1 (stereo not drawn) | -6.73
CCN(CC)C(=O)Oc1cc(COC)nc(-c2ccccc2)n1 | -1.63
CC(CCc1ccccc1)NC(=O)C1CCCN(C(=O)c2cc3sccc3n2C)C1 (stereo not drawn) | -27.4
COC(=O)c1ccc(NC(=O)CSc2nnc(-c3ccncc3)n2N)cc1 | 2.05
CCn1ncc([N+](=O)[O-])c1C(=O)N1CCCC1 | 20.9

SMILES | hERG current change (%, negative = inhibition) at 10uM [%]
O=c1c(Cl)c(NCCCO)cnn1-c1nc2ccccc2[nH]1 | -6.07
COC(=O)c1ccc(N(C(=O)CNC(=O)c2ccco2)C(C(=O)NCC2CCCO2)c2ccc(OC)c(OC)c2)cc1 (stereo not drawn) | 12.6
O=C(NCc1ccccn1)c1cc(-c2ccccc2Cl)nc2ccccc12 | -2.16
Cc1cc(C(=O)Nc2ccc3ccccc3c2)c(C)o1 | 6.68
CCOC(=O)c1cn(CC)c2cc(N3CCN(C)CC3)c(F)cc2c1=O | 18.9
CCOC(=O)N1CCN(C(=O)c2cc(OC)cc(OC)c2)CC1 | -1.58
CCOC(=O)c1ccc2c(c1)C(=O)N(C1CCCCC1)C2=O | 2.81
COCCn1c(C)cc(C(=O)COC(=O)/C=C/c2c(C)nn(C3CCS(=O)(=O)C3)c2Cl)c1C (stereo not drawn) | -12.3
COc1cccc2cc(C(C)N(CCCN3CCOCC3)C(=O)Nc3ccccc3)oc12 (stereo not drawn) | -16.9
CCC(CC)C(=O)c1c[nH]c(C(=O)NCc2ccccc2OC)c1 | 14.9
CC(C)c1ccc(NC(=O)C(c2ccccc2)N2CC(=O)Nc3ccccc32)cc1 (stereo not drawn) | 11.4
CCOC(=O)N1CCN(c2c(NCC3CCN(Cc4cccc(C)c4)CC3)c(=O)c2=O)CC1 | 2.2
Cc1cc(C(=O)Nc2ccc(Cl)cc2)c(C)n1-c1ccccc1 | -0.535
COc1cc2ccccc2cc1C(=O)N(CCN(C)C)c1nc2c(OC)ccc(OC)c2s1.Cl | -15.6
Cc1cc(OC(C)C(=O)NCc2ccncc2)c2c3c(c(=O)oc2c1)CCC3 (stereo not drawn) | -2.14
O=C(c1sccc1-c1ccccc1)N1CCN(S(=O)(=O)c2ccccc2F)CC1 | -49.3
Nc1cc(=O)[nH]c(=O)n1-c1ccc(Cl)cc1 | 15.2
O=S(=O)(Nc1ccncc1Cl)c1cccc(Cl)c1Cl | 19.4
Cc1cc(NC(=O)c2ccc(F)cc2)no1 | 22.1
CSCCC(NC(=O)c1ccco1)C(=O)OCC(=O)Nc1ncc(Cl)c(C)c1Cl (stereo not drawn) | -24.6
COc1ccccc1-n1cnnc1SCC(=O)Nc1nc(C)c(Cl)cc1Cl | -8.05
CC(C)(C)c1ccccc1OCCN1CCCC1 | -24.1

SMILES | hERG current change (%, negative = inhibition) at 10uM [%]
N#CCCN(C(=O)COC(=O)C12CC3CC(CC(O)(C3)C1)C2)c1ccc(F)cc1 | 9.8
COc1cc(CNCCN2CCOCC2)ccc1OCc1c(Cl)cccc1Cl.Cl | -50.6
COc1cc(C=O)ccc1OCc1c(C)noc1C | 10.9
O=C(Nc1ccc(S(=O)(=O)Nc2cnc3ccccc3n2)cc1)c1ccc(Cl)c([N+](=O)[O-])c1 | 12.9
CC1CCCC(CC(=O)O)(CC(=O)O)C1 (stereo not drawn) | 17.2
Cc1ccc(NS(=O)(=O)c2c(C)nc3sccn3c2=O)cc1C | -10.9
COc1cc(C(=O)NCCC(=O)NCc2ccc3c(c2)OCO3)cc(OC)c1OC | 16.4
CCOc1ccc(S(=O)(=O)N(CC)CC(=O)NCc2ccccn2)cc1C | 2.76
Cc1cc([N+](=O)[O-])ccc1NC(=O)CCC(=O)N1CCCCCC1 | -23.6
COc1ccc(OC)c(NS(=O)(=O)c2ccc(N3CCCC3=O)cc2)c1 | -4.92
CCc1ccc(O)c(N=Cc2ccccc2O)c1 | 2
COc1ccc(-n2nc(C(=O)NCC(=O)N3CCCC3)c3ccccc3c2=O)cc1Cl | 17.7
CCN(CC)S(=O)(=O)c1ccc(OC)c(NC(=O)/C=C/c2ccco2)c1 | -37.5
O=C(Nc1cccc(C(F)(F)F)c1)C12CC3CC(CC(C3)C1)C2 | 16.3
CCc1ccc(NCc2nc3ccccc3c(=O)[nH]2)cc1 | -3.29
CCc1c(C)sc(NC(=S)N2CC(C)OC(C)C2)c1C(=O)OC (stereo not drawn) | 27.3
CCCN(CCC)Cc1c(C(=O)N/N=C/CCc2ccccc2)nnn1-c1nonc1N | -19.1
O=C(CSc1c[nH]c2ccccc12)N1CCCc2ccccc21 | 0.956
O=C(Cn1nc(-c2ccccc2)c2ccccc2c1=O)Nc1ccccn1 | 0.199
CCC(=O)Nc1cccc(NC(=O)c2ccc(C)c([N+](=O)[O-])c2)c1 | -20.9
COCCCNc1c2c3c(cccc3[nH]c1=O)C(=O)c1ccccc1-2 | -24
Cc1c(Br)c([N+](=O)[O-])nn1CC(=O)Nc1ccc(CC#N)cc1 | 33.8

SMILES | hERG current change (%, negative = inhibition) at 10uM [%]
CSc1ccc(CCNC(=O)C2CCN(c3nnc(-n4cccc4)s3)CC2)cc1 | 1.23
Cc1ccccc1OCC(=O)NCC(=O)OCC(=O)c1ccc2ccccc2c1 | 2.34
CC(C)CN(C(=O)COC(=O)c1cncc(Br)c1)c1c(N)n(Cc2ccccc2)c(=O)[nH]c1=O | 21.9
CCOc1ccc(S(=O)(=O)N2CCC(C(=O)NCc3cccnc3)CC2)cc1Cl | -40.8
NNc1ccc2nncn2n1 | -0.364
CC(C)c1ccc(N(C)C(=O)Cc2c(C(=O)O)n(C)c3ccccc23)cc1 | 0.167
CC(NC(=O)CCC(=O)NCc1ccc(F)cc1)c1ccccc1 (stereo not drawn) | 13.3
CCOCCCn1c(=S)[nH]c2cc(C(=O)N3CCOCC3)ccc2c1=O | -9.07
CCN(CC)C(=O)CSc1nnc(-c2ccco2)n1Cc1ccco1 | -22.3
O=C(c1ccc(F)cc1)c1ccc(N2CCCCC2)cc1 | -31.5
CCCn1nnc(NC(=O)c2ccc(Cl)cc2Cl)n1 | 2.23
COC(=O)C1=C(C(=O)OC)C2C(C)=CC(C)=CN2C(C(=O)OC)=C1C(=O)OC (stereo not drawn) | -6.2
O=C(c1cccc(Cl)c1)C1CCCN(C(=O)c2ccc3c(c2)OCO3)C1 (stereo not drawn) | -34.1
CC1CCCC(NS(=O)(=O)c2cccc3nsnc23)C1C (stereo not drawn) | 9.42
COc1cc(CNC(=O)CCCC/C=C\C(C)C)ccc1O | 0.646
Cc1cc(Cl)ccc1OCC(=O)NNC(=O)c1ccco1 | 8.38
Nc1ncnc2c1ncn2[C@@H]1O[C@H](CO)C[C@@H]1O.O | -3.06
Cc1ccc(-c2nnc(Nc3ccc(C(=O)N(C)C)cc3)c3ccccc23)cc1S(N)(=O)=O | 11.6
CNC(=O)c1cccn(Cc2ccc(C(F)(F)F)cc2)c1=O | 35.5
O=C(NCc1cccs1)C1CCCN1C(=O)Nc1ccccc1 (stereo not drawn) | 21
CCOC(=O)c1oc2c(O)c(O)ccc2c(=O)c1-c1nncn1-c1ccccc1 | 13.3
